Several values for one entry are separate records, joined by “and”; a condition that tells them apart may be missing. Identical values can stand only once. Screen size: about 280,000 compounds; about 1,100 (0.39%) were called active. Inconclusive means that the source gave no clear call. Such entries were picked first, then a sample of the others. Calls come from the whole dose curve; as a rule, active = well fitted inhibition curve with a large enough effect; inconclusive = small, poorly fitted or top-dose-only effect, or effect the other way; inactive = flat fitted curve, though single readings scatter. A potency beside an inconclusive call is a rough fit, not a confirmed value.
Molecular target: Microtubule-associated protein tau (Homo sapiens) (UniProt P10636)
Assay: qHTS for Inhibitors of Tau Fibril Formation, Fluorescence Polarization; note: nearly all actives have a fitted effect of over 55% in size
Details: K18 P301L tau heparin fibrillization, Alexa594 FP, 6 h; series mostly up to 57.7 µM
Summary of the method: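 Read-out: fluorescence polarization of Alexa 594-labeled tau (0.24 uM), 555 nm excitation, 632 nm emission. Mixtures held 15 uM unlabeled K18 P301L, compound and 20 uM heparin, pH 7 acetate buffer, incubated 6 hr at 37 C.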
Potency is the fitted concentration of half-maximal effect; tags give direction and shape of the fitted curve.

Sequence of UniProt P10636 (P10636 whole entry, looked up): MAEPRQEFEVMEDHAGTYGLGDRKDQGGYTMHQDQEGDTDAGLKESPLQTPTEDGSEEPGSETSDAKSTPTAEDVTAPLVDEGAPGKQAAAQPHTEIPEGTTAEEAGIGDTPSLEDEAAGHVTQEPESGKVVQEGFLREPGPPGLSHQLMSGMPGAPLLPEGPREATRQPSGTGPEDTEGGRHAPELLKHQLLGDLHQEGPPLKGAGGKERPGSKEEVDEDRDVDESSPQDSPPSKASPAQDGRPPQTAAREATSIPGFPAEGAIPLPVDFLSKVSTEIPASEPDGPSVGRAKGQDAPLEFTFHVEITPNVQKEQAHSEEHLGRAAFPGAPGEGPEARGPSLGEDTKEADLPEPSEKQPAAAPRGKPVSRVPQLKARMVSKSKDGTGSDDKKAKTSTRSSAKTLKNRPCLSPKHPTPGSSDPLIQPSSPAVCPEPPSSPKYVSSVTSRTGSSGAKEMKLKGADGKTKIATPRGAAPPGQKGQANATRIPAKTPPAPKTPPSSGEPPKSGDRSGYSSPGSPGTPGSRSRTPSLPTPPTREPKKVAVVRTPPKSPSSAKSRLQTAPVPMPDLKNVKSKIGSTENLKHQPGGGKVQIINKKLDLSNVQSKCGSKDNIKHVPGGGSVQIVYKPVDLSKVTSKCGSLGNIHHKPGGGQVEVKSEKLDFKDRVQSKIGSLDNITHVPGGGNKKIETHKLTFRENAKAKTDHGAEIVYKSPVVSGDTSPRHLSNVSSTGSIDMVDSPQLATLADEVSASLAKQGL

Potency, inactive:
Cc1ccc(-c2cn3c(n2)sc2cc(C(=O)NCc4cccs4)ccc23)cc1
O=C(N/N=C/c1cc(Br)cc(Br)c1O)c1cccc(S(=O)(=O)N2CCOCC2)c1
COc1cc(/C=N/Nc2ccccc2[N+](=O)[O-])ccc1OC(=O)c1ccccc1F
O=C(CCCN1CCOCC1)c1ccc2c(c1)OCCO2
COc1ccc(-c2cc(C(=O)OCC(=O)Nc3ccc4c(c3)OCO4)c3ccccc3n2)cc1
O=C(COc1ccccc1F)NC1CC(=O)N(c2ccc3c(c2)OCCO3)C1 (stereo not given)
C=CCn1c(C)c(C(C)=O)cc(NC(=O)c2ccccc2)c1=O
CSc1ccccc1C(=O)Nc1ccc2c(c1)OCCO2
O=C(CNC(=O)c1ccccc1O)N/N=C/c1ccccn1
COCCCNC(=O)CSc1nc2nc(C)c(Cc3ccccc3Cl)c(C)n2n1
CNc1ccc(Br)cc1C(O)c1ccccc1 (stereo not given)
COc1ccc(Cn2c(C(=O)O)c(CNC3CCC(C)CC3)c3ccc(C)cc32)cc1 (stereo not given)
CC1CCN(C(c2ccc(N(C)C)cc2)c2nnnn2Cc2ccccc2)CC1 (stereo not given)
O=C(/C=C/c1ccccc1Cl)Nc1ccncc1
CC(=O)Nc1sc(N/N=C/c2ccc(N(C)C)cc2)nc1-c1ccc(C)cc1
O=c1cc(CO)oc(C(Nc2ccccn2)c2cccc(F)c2)c1O (stereo not given)
CCOc1ccc(NC(=O)Nc2cc(C(C)C)ccc2C)cc1
COc1cccc(/C=C2\SC(=S)NC2=O)c1OS(=O)(=O)c1ccc(NC(C)=O)cc1
Cc1ccc(N2CCN(Cc3nnc(-c4ccc5c(c4)OCO5)o3)CC2)c(C)c1
Cc1cccc(NC(=O)Cn2nc(C)c3nn(-c4ccc(Cl)cc4)c(C)c3c2=O)c1C
c1ccc2c(-c3[nH]ncc3CNCCCn3ncc4ccccc43)cccc2c1
CCOc1ccc(NC(=O)CC2C(=O)N(C)C(=S)N2Cc2ccco2)cc1 (stereo not given)
Oc1[nH]c2ccccc2c1N=Nc1nncc2ccccc12
CCOC(=O)c1cccc(NC(=O)Cc2ccc(NC(=O)N3CCCCc4ccccc43)cc2)c1

Potency, active:
Cc1cc(N)ccc1N1CCCC1 12.6 µM
CCn1c2ccccc2c2nc3cc(S(=O)(=O)N4CCOCC4)ccc3nc21 31.6 µM
COc1ccc(N2CSC3=C(C#N)C(c4cccs4)CC(=O)N3C2)cc1 (stereo not given) 25.1 µM

Potency, inconclusive:
O=C(NN1C(=O)c2ccccc2NC1c1ccc([N+](=O)[O-])o1)c1ccc([N+](=O)[O-])cc1 (stereo not given) 3.16 µM [inhibitor, full curve]
COc1ccccc1CC(=O)Nc1ccccc1O 44.7 µM [inhibitor, single point]
COc1cc(C(=O)NCCc2c[nH]c3ccccc23)ccc1OCc1c(C)noc1C 11.2 µM [activator, partial curve]
Cc1ccc(O)c(NC(=O)c2noc3c2CCCCC3)c1 8.91 µM [activator, partial curve]
O=C(Nc1ccc2c(c1)OCO2)c1n[nH]c(=O)c2ccccc12 10 µM [activator, partial curve]
Cc1c(N=NC2=C(O)CCCC2=O)c(=O)n(-c2ccccc2)n1C 22.4 µM [inhibitor, partial curve]
O=C(NCc1ccco1)C1CCN(C(=O)N2CCOc3ccc(Cl)cc32)CC1 22.4 µM [inhibitor, single point]
Cc1ccc(S(=O)(=O)N2CCCC2C(=O)NCc2ccc3c(c2)OCO3)cc1 (stereo not given) 0.562 µM [inhibitor, full curve, poor fit]
COCc1cc(/C=N\NC(=O)Cc2ccc(Cl)cc2)ccc1OC 39.8 µM [inhibitor, single point]
O=S(=O)(NCCc1csc2nc(-c3ccc(Cl)cc3)nn12)c1ccc(Oc2ccccc2)cc1 3.16 µM [inhibitor, full curve, poor fit]
COc1ccc(N=Cc2nc(-c3ccccc3)oc2OC(=O)c2ccccc2)cc1 39.8 µM [inhibitor, single point]
Cc1occc1-c1nnc(SCC(=O)c2c[nH]c3ccccc23)n1C 14.1 µM [inhibitor, partial curve]
Cc1ccc(NC(=O)C2(C)Cc3ccccc3C(=O)O2)cc1 (stereo not given) 44.7 µM [inhibitor, single point]
Cc1cccc(C(=O)Nc2ccc(-c3nc4cc(C(C)C)ccc4o3)cc2)c1 3.98 µM [inhibitor, full curve]
CN=c1scc(-c2ccccc2F)n1/N=C/c1ccc(O)c(O)c1O 39.8 µM [inhibitor, single point]
O=C(CSc1cccc[n+]1[O-])c1ccc(Cl)s1 25.1 µM [inhibitor, partial curve, poor fit]
COc1ccc(Cn2c(=O)c3oc4ccccc4c3n(CC(=O)Nc3cc(C)cc(C)c3)c2=O)cc1 31.6 µM [inhibitor, partial curve]
CC(=O)Nc1ccc(Nc2c3c4c(cccc4n(C)c2=O)C(=O)c2ccccc2-3)cc1 4.47 µM [activator, partial curve]
C=C(C)COc1ccc(-c2n[nH]c(C)c2-c2ccc(OC)cc2)c(O)c1 39.8 µM [inhibitor, single point]
CCOc1ccc(C(=O)Nc2cccc(-c3cc4ccccc4oc3=O)c2)cc1[N+](=O)[O-] 39.8 µM [inhibitor, single point]
CCOc1ccc(-c2nnn(CC(=O)Nc3cc(OC)cc(OC)c3)n2)cc1OCC 28.2 µM [inhibitor, single point]
COc1cccc(CNC(=O)c2cc(-c3cccs3)nc3ccccc23)c1 7.08 µM [inhibitor, partial curve]
CN(CC(=O)Nc1ccc(F)cc1)C(=O)COc1ccc(C(=O)c2ccccc2)cc1 28.2 µM [inhibitor, single point]
COc1cccc(C(=O)Nc2ccc3nc(SCc4ccc(C)cc4)sc3c2)c1 7.08 µM [inhibitor, partial curve]
CCc1ccc(S(=O)(=O)Nc2cc(-c3cn4ccccc4n3)ccc2C)cc1 10 µM [inhibitor, partial curve, poor fit]
COc1ccc(/C=N/n2cnn(Cc3ccccc3Cl)c2=S)cc1 39.8 µM [inhibitor, single point]
COC(=O)c1ccccc1NC(=S)N(Cc1ccc2c(c1)OCO2)Cc1cc2ccc(OC)cc2[nH]c1=O 22.4 µM [inhibitor, partial curve]
COc1cc(/C=N/N=C(/C(=O)c2ccccc2)c2ccccc2)cc(OC)c1O 12.6 µM [activator, partial curve, poor fit]
CN(C)c1ccc(-c2nc(-c3ccncc3)no2)cc1[N+](=O)[O-] 35.5 µM [inhibitor, single point]
Nc1cc(Cl)ccc1C(=O)OCC(=O)NC(=O)NCc1ccccc1 28.2 µM [inhibitor, single point]
Cc1ccc(C(=O)O)cc1NC(=S)NC(=O)c1ccc([N+](=O)[O-])c(C)c1 17.8 µM [inhibitor, single point]
NCCS 12.6 µM [inhibitor, partial curve] and 2.82 µM [inhibitor, full curve]
Cc1ccccc1C(=O)Nc1cc(-c2cc(C(C)(C)C)oc2C)nn1C 3.55 µM [activator, single point]
O=C1c2ccccc2-c2onc3c(Br)cc(NC4CCCCC4)c1c23 11.2 µM [inhibitor, partial curve]
O=C(CSc1nnc(-c2cccs2)o1)Nc1cccc(C(F)(F)F)c1 28.2 µM [inhibitor, single point]
Cc1ccc(-c2nc3ccccc3[nH]2)cc1NC(=S)NC(=O)c1ccccc1Br 31.6 µM [inhibitor, single point]
CCCCOC(=O)c1ccc(NC(=O)c2ccc3c(c2)CCN3S(=O)(=O)c2ccccc2)cc1 25.1 µM [inhibitor, partial curve]
O=C1/C(=C/c2ccco2)SC(=S)N1CC1CCCO1 (stereo not given) 39.8 µM [inhibitor, single point]
Cc1cc([N+](=O)[O-])ccc1NC(=O)Nc1ccc(F)cc1F 31.6 µM [inhibitor, partial curve, poor fit]
COC(=O)c1ccc2c(=O)n(NC(=O)C(c3ccccc3)c3ccccc3)c(=S)[nH]c2c1 22.4 µM [inhibitor, single point]
O=C(Nc1cc([N+](=O)[O-])ccc1Cl)c1ccc2c(c1)OCO2 39.8 µM [inhibitor, single point]
CCOc1ccc2nc(NC(=O)CSc3ccccc3)sc2c1 39.8 µM [inhibitor, single point]
CCOC(=O)c1ccc(N2CCN(c3cccc(Cl)c3)CC2)c(NC(=O)Nc2ccc(Cl)cc2)c1 28.2 µM [inhibitor, single point]

From PubChem BioAssay AID1468 (National Center for Advancing Translational Sciences (NCATS), 2008)
